The target in the experiment is Virion infectivity factor (Human immunodeficiency virus type 1 group M subtype B (isolate BH10)) + Virion infectivity factor (Human immunodeficiency virus type 1 group M subtype B (isolate BRU/LAI)) + Virion infectivity factor (Human immunodeficiency virus type 1 group M subtype B (isolate PCV12)) + Virion infectivity factor (Human immunodeficiency virus type 1 group M subtype B (isolate HXB2)) + DNA dC->dU-editing enzyme APOBEC-3G (Homo sapiens) (UniProt P69720+P69721+P69722+P69723+Q9HC16). Put plainly: inhibitors of Vif binding to APOBEC3G peptide, primary screen, biochemical, TR-FRET, GST-Vif 1-94, biotin-A3G peptide, dose response retest (AID 1117319;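 also: Vif residues 1-94 fused to GST binding biotinylated APOBEC3G peptide 110-148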). (In general: In TR-FRET formats the signal depends on donor and acceptor labels being close together.)

These results are taken from PubChem BioAssay AID1117319 (Southern Research Institute, 2015).

Results filed as inconclusive are left out. The source holds more than one record for some entries. This list holds those alone. An entry can have further records. The values listed for one entry are repeated measurements in other runs, samples, wells, individuals or studies. Marks in square brackets tell the records apart. A, B and so on number the origins entry by entry.

By IC50 is commonly meant the concentration at which inhibition is half-maximal.

For `O=C(Nc1ccccc1)c1ccc2nc(-c3ccco3)c(-c3ccco3)nc2c1`, the IC50 was 1.48 µM [sample A] and 19.9 µM [sample B].

Consider `Clc1ccccc1CSc1nnc(-c2ccco2)c(-c2ccco2)n1`, for which the IC50 was 1.37 µM [sample A] and 25.2 µM [sample B].
